Test results from PMC4336329 (PLoS ONE, 2015).
About 2,200 (0.71%) of roughly 310,000 compounds showed an effect of 50% or more. Effects have a minus sign here. The list shows a part of the results.

target: human ether-à-go-go-related gene (hERG) potassium channel (human, UniProt Q12809); test: primary screen, population patch clamp on CHO cells stably expressing hERG
Sequence (Q12809 whole entry, looked up): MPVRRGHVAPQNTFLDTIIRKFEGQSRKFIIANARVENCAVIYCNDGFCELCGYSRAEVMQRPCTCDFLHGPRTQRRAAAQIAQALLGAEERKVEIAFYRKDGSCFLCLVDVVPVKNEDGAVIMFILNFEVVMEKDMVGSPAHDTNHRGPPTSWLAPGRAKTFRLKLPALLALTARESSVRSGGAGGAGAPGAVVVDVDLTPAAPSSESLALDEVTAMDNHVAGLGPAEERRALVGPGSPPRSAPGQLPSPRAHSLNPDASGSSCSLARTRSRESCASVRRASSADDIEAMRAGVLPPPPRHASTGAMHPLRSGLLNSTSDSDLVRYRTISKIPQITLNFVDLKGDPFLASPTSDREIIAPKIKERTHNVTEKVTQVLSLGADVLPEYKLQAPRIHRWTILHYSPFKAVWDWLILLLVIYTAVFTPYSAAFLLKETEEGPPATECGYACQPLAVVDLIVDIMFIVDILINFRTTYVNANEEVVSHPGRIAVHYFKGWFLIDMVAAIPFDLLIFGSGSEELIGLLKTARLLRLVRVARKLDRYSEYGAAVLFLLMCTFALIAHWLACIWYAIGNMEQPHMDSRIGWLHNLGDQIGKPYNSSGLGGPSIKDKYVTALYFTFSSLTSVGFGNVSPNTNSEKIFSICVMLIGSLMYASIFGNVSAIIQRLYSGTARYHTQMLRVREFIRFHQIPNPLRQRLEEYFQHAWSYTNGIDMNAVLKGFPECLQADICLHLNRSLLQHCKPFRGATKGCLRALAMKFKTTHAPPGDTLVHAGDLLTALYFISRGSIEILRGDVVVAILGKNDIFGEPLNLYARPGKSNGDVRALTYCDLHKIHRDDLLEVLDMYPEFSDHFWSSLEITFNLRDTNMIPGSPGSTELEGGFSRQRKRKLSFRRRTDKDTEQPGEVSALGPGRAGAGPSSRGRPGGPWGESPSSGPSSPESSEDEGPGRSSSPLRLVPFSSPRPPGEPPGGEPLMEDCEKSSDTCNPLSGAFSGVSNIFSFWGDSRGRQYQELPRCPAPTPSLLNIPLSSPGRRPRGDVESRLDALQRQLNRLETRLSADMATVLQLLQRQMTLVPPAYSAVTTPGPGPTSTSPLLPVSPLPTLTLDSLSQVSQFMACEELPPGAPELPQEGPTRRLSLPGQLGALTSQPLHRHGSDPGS

| SMILES | hERG current change (%, negative = inhibition) at 1uM |
| --- | --- |
| CCCCOc1cccc(-c2nnc(N)s2)c1 | 5.55% |
| O=[N+]([O-])c1cccc(C2=NCCS2)c1 | 3.2% |
| COc1ccc(/C=C\C(=O)NCc2ccc3c(c2)cc(C)n3C)cc1OC | 10.2% |
| Cn1ccnc1SCC(=O)Nc1ccc2c(c1)OCCO2 | 5.28% |
| COC(=O)c1ccc(OCC(O)CN2C(=O)c3ccccc3C2=O)cc1 (stereo not shown) | 14.5% |
| O=C(Cn1cnc2ccccc2c1=O)OCC(=O)c1ccc2c(c1)OCCO2 | 12.8% |
| Cc1ccc(-n2ncc3c(SCc4cccc(C)c4)ncnc32)cc1 | 5.37% |
| COc1ccccc1CNC(=O)c1cc(-c2ccccc2)n(Cc2cc(C)no2)n1 | 5.65% |
| Cc1cccc[n+]1C1C(c2ccc([N+](=O)[O-])cc2)C(C#N)=C(C(=C=[N-])C#N)NC1(O)C1CC1 (stereo not shown) | 4.67% |
| Br.CCCCn1c(=N)n(CC(=O)c2ccc([N+](=O)[O-])cc2)c2ccccc21 | -33.1% |
| Cc1nc2sccc2c(=O)n1N | 15.6% |
| COc1cc(OC)cc(C(=O)N2CCN(S(C)(=O)=O)CC2)c1 | 7.32% |
| CCn1c(SCC(=O)OC(C)C)nnc1-c1ccccc1 | 8.68% |
| O=C(O)CCC(=O)N1CCc2cc(S(=O)(=O)NCc3cccs3)ccc21 | 12.7% |
| CCN(CC)C(=O)c1csc(Nc2cccc3ccccc23)n1 | 13.2% |
| CCN(CC)CCCNC(=S)N(CCO)Cc1cc2cc3c(cc2[nH]c1=O)OCCO3 | 9.62% |
| CC(C)N1C(=O)S/C(=C/c2ccc(Sc3nc4ccccc4[nH]3)o2)C1=O | 4.84% |
| O=C(CSc1nncs1)Nc1nccs1 | 15.8% |
| CC(=O)c1ccc(OCC(=O)OC(C)C(=O)NC2CCCCC2)cc1 (stereo not shown) | -3.11% |
| O=[N+]([O-])c1ccccc1S(=O)(=O)Oc1ccc(/C=N/n2cnnc2)cc1 | -3.71% |
| O=C(Nc1ccc(C(=O)O)cc1)/C(=C\c1ccccc1)NC(=O)c1ccccc1 | -2.26% |
| COc1ccc(CN(N=O)C2CC(=O)N(c3ccc(OC)cc3)C2=O)cc1 (stereo not shown) | 15.2% |
| Cc1cc(Cl)ccc1C(=O)C1CCCN(C(=O)CCn2cncn2)C1 (stereo not shown) | -11.6% |
| Cc1ccn2cc(C(=O)NCc3ccco3)nc2c1 | 10.3% |
| O=C1C=CC(=O)N1c1ccc(N2CCCCC2)cc1 | 4.62% |
